Laboratory results reported in patent US20220017591A1 (AstraZeneca / MedImmune, published 2022).
Read-outs that look alike come from different tables or passages of the source.

Key:
Assay in all cases: cell-based or functional assay
[1] = target: T1, human RXFP2 (human, UniProt Q8WXD0 1-754)
T1 sequence (looked up): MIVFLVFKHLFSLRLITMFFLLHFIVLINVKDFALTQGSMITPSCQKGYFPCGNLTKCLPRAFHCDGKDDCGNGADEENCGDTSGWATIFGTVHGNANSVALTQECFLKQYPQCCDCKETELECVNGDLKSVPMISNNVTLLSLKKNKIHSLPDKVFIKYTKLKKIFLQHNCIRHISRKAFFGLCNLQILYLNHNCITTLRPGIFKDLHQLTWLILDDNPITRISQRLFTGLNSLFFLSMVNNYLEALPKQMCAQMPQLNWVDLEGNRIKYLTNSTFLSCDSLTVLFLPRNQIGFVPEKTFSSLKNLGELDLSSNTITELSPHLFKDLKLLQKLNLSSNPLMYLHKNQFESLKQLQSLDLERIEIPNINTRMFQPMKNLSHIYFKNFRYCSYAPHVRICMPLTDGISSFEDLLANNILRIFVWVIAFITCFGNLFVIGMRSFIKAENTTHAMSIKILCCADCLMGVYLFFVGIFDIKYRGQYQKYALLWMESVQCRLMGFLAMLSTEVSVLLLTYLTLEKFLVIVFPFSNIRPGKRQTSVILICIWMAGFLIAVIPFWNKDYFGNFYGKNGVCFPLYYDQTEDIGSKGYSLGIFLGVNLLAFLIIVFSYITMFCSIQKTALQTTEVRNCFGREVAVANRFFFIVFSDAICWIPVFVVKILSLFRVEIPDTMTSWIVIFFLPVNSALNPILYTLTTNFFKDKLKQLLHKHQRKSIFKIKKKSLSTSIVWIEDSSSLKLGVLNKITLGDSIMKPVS

[2] = target: T2, human RXFP1 (human, UniProt Q9HBX9 1-757)
T2 sequence (looked up): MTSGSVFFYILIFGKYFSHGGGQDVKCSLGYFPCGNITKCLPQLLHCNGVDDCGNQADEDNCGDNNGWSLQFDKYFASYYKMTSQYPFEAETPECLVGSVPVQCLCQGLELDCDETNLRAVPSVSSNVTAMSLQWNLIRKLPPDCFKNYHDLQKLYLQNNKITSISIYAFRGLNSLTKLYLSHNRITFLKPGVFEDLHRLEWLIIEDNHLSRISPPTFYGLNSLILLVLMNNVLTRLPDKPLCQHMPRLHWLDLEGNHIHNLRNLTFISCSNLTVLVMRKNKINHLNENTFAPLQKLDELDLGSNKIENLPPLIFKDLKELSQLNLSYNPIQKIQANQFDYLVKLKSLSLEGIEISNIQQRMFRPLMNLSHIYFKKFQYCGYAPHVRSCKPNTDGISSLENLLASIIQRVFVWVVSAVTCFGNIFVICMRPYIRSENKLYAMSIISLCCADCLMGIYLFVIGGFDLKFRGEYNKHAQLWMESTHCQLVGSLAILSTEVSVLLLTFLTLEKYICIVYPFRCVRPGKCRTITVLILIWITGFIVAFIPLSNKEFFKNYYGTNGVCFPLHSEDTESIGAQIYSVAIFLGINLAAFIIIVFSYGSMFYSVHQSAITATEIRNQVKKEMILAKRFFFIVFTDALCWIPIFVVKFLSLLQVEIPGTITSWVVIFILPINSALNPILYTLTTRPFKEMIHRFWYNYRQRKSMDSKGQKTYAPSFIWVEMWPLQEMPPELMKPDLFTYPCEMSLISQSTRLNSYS

[3] = target: T3, mouse RXFP1 (mouse, UniProt Q6R6I7 1-758)
T3 sequence (looked up): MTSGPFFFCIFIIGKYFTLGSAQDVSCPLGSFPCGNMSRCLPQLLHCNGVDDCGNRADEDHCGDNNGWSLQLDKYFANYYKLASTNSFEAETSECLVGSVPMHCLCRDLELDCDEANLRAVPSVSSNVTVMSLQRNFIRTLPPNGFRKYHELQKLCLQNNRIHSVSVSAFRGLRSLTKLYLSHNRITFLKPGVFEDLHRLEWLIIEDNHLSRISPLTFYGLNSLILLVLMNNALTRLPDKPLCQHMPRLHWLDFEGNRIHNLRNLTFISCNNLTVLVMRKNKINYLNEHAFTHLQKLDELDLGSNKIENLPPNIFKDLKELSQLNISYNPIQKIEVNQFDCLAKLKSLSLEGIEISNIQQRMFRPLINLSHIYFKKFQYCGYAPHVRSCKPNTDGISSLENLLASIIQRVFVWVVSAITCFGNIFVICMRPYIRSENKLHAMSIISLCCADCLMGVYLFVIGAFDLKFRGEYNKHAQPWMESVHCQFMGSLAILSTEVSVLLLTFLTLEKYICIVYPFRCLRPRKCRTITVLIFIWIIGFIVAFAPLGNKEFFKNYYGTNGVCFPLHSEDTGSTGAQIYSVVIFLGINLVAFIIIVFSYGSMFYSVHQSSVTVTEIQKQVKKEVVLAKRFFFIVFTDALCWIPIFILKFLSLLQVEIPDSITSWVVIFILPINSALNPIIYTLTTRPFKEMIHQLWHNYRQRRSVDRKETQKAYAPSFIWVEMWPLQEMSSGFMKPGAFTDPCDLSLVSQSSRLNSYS

[4] = target: T1, human RXFP2; remark: listed apart in the source
[5] = target: T2, human RXFP1; remark: listed apart in the source
[6] = target: T3, mouse RXFP1; remark: listed apart in the source

EC50 hRXFP2 (M), cAMP assay [1]: 2.88e-07 M
EC50 hRXFP1 (M), cAMP assay [2]: 8.3e-12 M
EC50 mRXFP1 (M), cAMP assay [3]: 7.64e-12 M
EC50 hRXFP2 (M), cAMP assay [4]: 2.88e-07 M
EC50 hRXFP1 (M), cAMP assay [5]: 8.3e-12 M
EC50 mRXFP1 (M), cAMP assay [6]: 7.64e-12 M
B1: RELAX0010 (Fc fusion)
chain: [letters of human IgG1 Fc omitted]GGGGSGGGGSGGGGSQLYSALANKCCHVGCTKRSLARFCGGGGSGGGGSGGGGSSWMEEVIKLCGRELVRAQIAICGMSTWS
